{
  "source": "PubChem BioAssay AID1466",
  "about": "(National Center for Advancing Translational Sciences (NCATS), 2008)",
  "note": "About 10 (0.005%) of roughly 200,000 compounds were called active. Inconclusive means that the source gave no clear call. Such entries were picked first, then a sample of the others. Calls follow the shape of the dose curve; as a rule, active = well fitted inhibition curve with a large enough effect; inconclusive = small, poorly fitted or top-dose-only effect, or effect the other way, or another doubt; inactive = no such curve, though single readings can be large or run the other way. No potency is given beside an inconclusive call; the fits are too rough. Potency is read from the fitted curve at half-maximal effect; tags tell the direction and shape of the fitted curve.",
  "data": [
    {"molecular_target": "Lysosomal alpha-glucosidase (Homo sapiens) (UniProt P10253)", "experiment": "qHTS Assay for Inhibitors of Human alpha-Glucosidase as a Potential Chaperone Treatment of Pompe Disease;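 as to activity change, negative = inhibition: plate controls were uninhibited enzyme wells for no effect and no-enzyme background for full effect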", "details": "purified human GAA, 4-MU-alpha-glucoside fluorescence; activity change, negative = inhibition: at 76.9 µM (top of the series) unless noted", "summary_of_the_method": "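Enzyme (4 nM final) mixed with compound (up to 77 uM), then 4-MU-alpha-D-pyranoside (400 uM final) added; 20 min at room temperature, pH 5.0. Reaction stopped at pH 10, fluorescence read, AC50 derived by Hill fit.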", "values": [
      {"smiles": "CCOc1cccc(C(=O)Nc2nnc(-c3cccs3)s2)c1", "Potency": "inconclusive [inhibitor, single point]"},
      {"smiles": "CCOCCCNC(=O)c1ccc2c(=O)n(Cc3ccc(OC)cc3)c(=O)[nH]c2c1", "Potency": "inconclusive [activator, partial curve]"},
      {"smiles": "O=C(Cc1ccc(Cl)cc1)N/N=C/c1ccccc1", "activity change, negative = inhibition": "inconclusive: 15.9% [activator]"},
      {"smiles": "CCOC(=O)c1c(NC(=O)C2C3C=CC(C3)C2(C)C(=O)O)sc2c1CCCC2", "note": "(stereo not given)", "activity change, negative = inhibition": "inconclusive: 15.3% [activator]"},
      {"smiles": "O=C(c1cccc([N+](=O)[O-])c1)N(c1ccccn1)c1ccccn1", "activity change, negative = inhibition": "inconclusive: 15.5% [activator]"},
      {"smiles": "CCOC(=O)c1cnn(-c2nc(-c3ccccc3)cs2)c1C(F)(F)F", "Potency": "inconclusive [inhibitor, partial curve]"},
      {"smiles": "COc1ccc(S(=O)(=O)/N=C2/NC(=O)/C(=C\\c3ccco3)S2)cc1", "Potency": "inconclusive [inhibitor, full curve]"},
      {"smiles": "Cc1cccc(NC(=O)NNC(=O)COc2ccc(Cl)cc2)c1", "activity change, negative = inhibition": "inconclusive: 15.4% [activator]"},
      {"smiles": "N#C/C(=C/c1ccc(-c2ccccc2[N+](=O)[O-])o1)C(N)=O", "Potency": "inconclusive [inhibitor, single point]"},
      {"smiles": "COc1cccc(Cn2nc(C(=O)O)c3ccccc3c2=O)c1", "Potency": "inconclusive [inhibitor, single point]"},
      {"smiles": "Cc1ccc(-c2nnn(CCC(=O)N3CCCCC3C)n2)cc1", "note": "(stereo not given)", "Potency": "inconclusive [inhibitor, full curve, poor fit]"},
      {"smiles": "Cn1c(=O)n(C)c2cc(NC(=O)C(F)(F)F)ccc21", "Potency": "inconclusive [inhibitor, single point]"},
      {"smiles": "O=C(CSc1cccc(C(F)(F)F)c1)N1CCN(S(=O)(=O)c2ccccc2)CC1", "Potency": "inconclusive [inhibitor, partial curve]"},
      {"smiles": "O=C(NC(=S)Nc1cccc(Cl)c1N1CCCCC1)c1cccs1", "Potency": "inconclusive [inhibitor, partial curve, poor fit]"},
      {"smiles": "Cn1nnnc1SCC(=O)Nc1ccc(S(=O)(=O)N2CCOCC2)cc1", "Potency": "inconclusive [inhibitor, partial curve]"},
      {"smiles": "CCOC(=O)c1cc2c(ccc3ccccc32)oc1=O", "Potency": "inconclusive [activator, partial curve]"},
      {"smiles": "CCOC(=O)C(C(=O)OCC)c1cc(Br)c2noc3c2c1C(=O)c1ccccc1-3", "activity change, negative = inhibition": "inconclusive: 0.662% [activator]"},
      {"smiles": "CCC(O)C1CCN(Cc2cn(Cc3ccccc3)nc2-c2cc3ccccc3o2)CC1", "note": "(stereo not given)", "activity change, negative = inhibition": "inconclusive: 1.71% [activator]"},
      {"smiles": "CCCCNS(=O)(=O)c1ccc(NS(=O)(=O)c2c(C)cc(C)cc2C)cc1", "Potency": "inconclusive [inhibitor, full curve, poor fit]"},
      {"smiles": "CC(=O)Nc1sc(C)c(C)c1CN1CCN(S(=O)(=O)c2ccccc2)CC1", "Potency": "inconclusive [inhibitor, partial curve]"},
      {"smiles": "O=C(Nc1cnccc1C(F)(F)F)NC1CCCCC1", "Potency": "inconclusive [inhibitor, partial curve, poor fit]"},
      {"smiles": "c1ccc(N2CCN(Cc3cn4ccccc4n3)CC2)cc1", "activity change, negative = inhibition": "inconclusive: 15% [activator]"},
      {"smiles": "Cc1cc(C)cc(N(CC(=O)O)S(=O)(=O)c2c(C)[nH]c(=O)[nH]c2=O)c1", "activity change, negative = inhibition": "inactive: 1.95%"},
      {"smiles": "COC(=O)c1[nH]c2cc(OC)ccc2c1NC(=O)CCN1CCCC(C)(C)C1", "Potency": "inconclusive [inhibitor, single point]"},
      {"smiles": "COc1ccccc1NC(=O)c1cc([N+](=O)[O-])ccc1NCCN1C(=O)CCC1=O", "Potency": "inconclusive [inhibitor, partial curve, poor fit]"},
      {"smiles": "COc1ccc(C(=O)/C=C/Nc2ccc(S(=O)(=O)Nc3cccc(C(C)=O)c3)cc2)cc1", "Potency": "inconclusive [inhibitor, partial curve]"},
      {"smiles": "CCCn1c(N2CCN(Cc3ccc(Cl)cc3)CC2)nc2ccccc21", "Potency": "inconclusive [inhibitor, full curve]"},
      {"smiles": "COC(=O)C(NC(=O)c1ccccc1Cl)(Nc1ncc(S(=O)(=O)c2ccc([N+](=O)[O-])cc2)s1)C(F)(F)F", "note": "(stereo not given)", "Potency": "inconclusive [inhibitor, full curve]"},
      {"smiles": "Cc1cc(-c2ccccc2N)n[nH]1", "Potency": "inconclusive [inhibitor, single point]"},
      {"smiles": "COC(=O)c1c(-c2ccc(F)cc2)noc1N", "activity change, negative = inhibition": "inconclusive: -17.6% [inhibitor]"},
      {"smiles": "Cc1ccc(C)c(-n2c(N)c(C(N)=O)sc2=S)c1", "Potency": "inconclusive [inhibitor, single point]"},
      {"smiles": "O=C(c1ccc(Cl)cc1)N1CCC(O)(CSc2ccc(Cl)cc2Cl)CC1", "Potency": "inconclusive [inhibitor, partial curve, poor fit]"},
      {"smiles": "COc1ccc(OC)c(CC(NC(C)=O)C(=O)NC2CCN(c3cc(C)nc4ncnn34)CC2)c1", "note": "(stereo not given)", "activity change, negative = inhibition": "inactive: -4.66%"},
      {"smiles": "c1cncc(CNc2ccc3c(c2)OCO3)c1", "activity change, negative = inhibition": "inactive: -3.76%"},
      {"smiles": "O=C(NCc1cccs1)c1cc2c(s1)-c1ccccc1OC2", "Potency": "inconclusive [activator, partial curve]"},
      {"smiles": "CNS(=O)(=O)c1ccc(C)cc1", "Potency": "inconclusive [inhibitor, single point]"},
      {"smiles": "Cn1c(=O)c(C(=O)CN2CCOCC2)c(N)n(Cc2ccccc2)c1=O", "Potency": "inconclusive [inhibitor, partial curve, poor fit]"},
      {"smiles": "COC(=O)c1cc(C(=O)NCCC(C)C)cc([N+](=O)[O-])c1", "Potency": "inconclusive [activator, full curve, poor fit]"},
      {"smiles": "CC(=O)OC[C@H]1O[C@H](CCO/N=C(\\C)CCN2CCCc3nc(C)c(C)cc32)C=C[C@@H]1OC(C)=O", "Potency": "inconclusive [inhibitor, partial curve]"},
      {"smiles": "CCC1CCCCN1CCCNC(=O)Cn1nc(-c2ccccc2)ccc1=O", "note": "(stereo not given)", "Potency": "inconclusive [inhibitor, single point]"}
    ]}
  ]
}
